The subject of one test is HSkMC. In words: cytotoxicity call (relative viability < 0.9). Conditions: 10 µM.
The next test relates to HepG2. Put plainly: cytotoxicity call (relative viability < 0.9). Conditions: 10 µM.
For the next test, the system named is S. aureus RN4220. Put plainly: growth inhibition call (relative growth <= 0.2). Conditions: 50 µM.

This is one part of the list.

As to `COc1ccc(C#Cc2cnc3c(c2)C(=O)N([C@H](C)CO)C[C@@H](C)[C@H](CN(C)C(=O)CC2CC2)O3)cc1`, the cytotoxicity call in the test on HSkMC and with HepG2 was “inactive” each time. Besides, the growth inhibition call in the test on S. aureus RN4220 was “inactive”.

For the compound `CCCNC(=O)Nc1ccc2c(c1)C(=O)N(C)C[C@@H](OC)[C@H](C)CN(C(=O)C1CCOCC1)[C@@H](C)CO2`, the cytotoxicity call in the test on HSkMC and in the test with HepG2 was “inactive” throughout. The growth inhibition call in the test with S. aureus RN4220 is “inactive”.

For the compound `C[C@@H]1CN([C@H](C)CO)C(=O)c2cc(NC(=O)Nc3ccc(C(F)(F)F)cc3)ccc2O[C@@H](C)CCCCO[C@H]1CN(C)C(=O)Nc1ccc(F)cc1`, the cytotoxicity call with HSkMC is “inactive”. Besides, in the test on HepG2, the cytotoxicity call was “active”. In addition, the growth inhibition call in the test on S. aureus RN4220 is “inactive”.

For the compound `Nc1nonc1C(=O)OCC(=O)N1CCOCC1`, the cytotoxicity call in the test with HSkMC and with HepG2 was “inactive” each time. In the test on S. aureus RN4220, the growth inhibition call is “inactive”.

With `C[C@H]1CCCCO[C@H](CN(C)C(=O)Nc2ccc(F)cc2)[C@@H](C)CN([C@@H](C)CO)C(=O)c2cc(NS(=O)(=O)c3ccc(F)cc3)ccc2O1`, the cytotoxicity call in the test on HSkMC was “inactive”. For the same compound, in the test on HepG2, the cytotoxicity call was “active”. Moreover, the growth inhibition call in the test on S. aureus RN4220 was “inactive”.

As for `O=C(NC1CCC1)[C@@H]1[C@@H](CO)[C@@H]2Cn3c(cccc3=O)[C@@H]2N1CC1CCOCC1`, the cytotoxicity call in the test with HSkMC and in the test with HepG2 was “inactive” throughout. Further, in the test with S. aureus RN4220, the growth inhibition call is “inactive”.

As to `N=C(N)N.O=C(O)O`, the cytotoxicity call in the test on HSkMC and with HepG2 was “inactive” in each case. Moreover, the growth inhibition call with S. aureus RN4220 was “inactive”.

Turning to `COc1ccc2c3c([nH]c2c1)[C@H](CO)N(Cc1cc(ccc1F)F)C[C@]13CCN(CC1)C(=O)CN(C)C`, the cytotoxicity call in the test with HSkMC and in the test on HepG2 was “inactive” throughout. Moreover, the growth inhibition call with S. aureus RN4220 is “inactive”.

For the compound `C[C@@H]1CCCn2nncc2COCCNC1=O`, the cytotoxicity call in the test with HSkMC and with HepG2 was “inactive” in each case. Besides, the growth inhibition call with S. aureus RN4220 was “inactive”.

Turning to `C[C@@H]1CCCCO[C@H](CN(C)C(=O)NC2CCCCC2)[C@@H](C)CN([C@H](C)CO)C(=O)c2cc(NC(=O)CCCCCC(=O)Nc3ccccc3N)ccc2O1`, the cytotoxicity call with HSkMC and in the test on HepG2 was “inactive” throughout. In addition, the growth inhibition call in the test on S. aureus RN4220 was “inactive”.

Consider `C[C@@H]1CN([C@H](C)CO)C(=O)c2cc(NC(=O)c3ccncc3)ccc2O[C@@H](C)CCCCO[C@H]1CN(C)Cc1ccc(Cl)c(Cl)c1`, for which the cytotoxicity call in the test with HSkMC and in the test with HepG2 was “inactive” in each case. In addition, in the test with S. aureus RN4220, the growth inhibition call is “inactive”.

As to `C=CC(=O)NCCc1ccncc1`, the cytotoxicity call with HSkMC and in the test with HepG2 was “inactive” in each case. In addition, the growth inhibition call in the test on S. aureus RN4220 was “inactive”.

`O=C(C[C@@H]1CC[C@@H]2[C@H](COC[C@H](O)CN2C(=O)c2ccc3c(c2)OCO3)O1)NCCN1CCCC1`: the cytotoxicity call in the test on HSkMC and in the test on HepG2 was “inactive” each time. The growth inhibition call with S. aureus RN4220 is “inactive”.

On to `COc1ccc2c3c(n(c2c1)C)[C@H](CO)N(C[C@]13CN(C1)C(=O)C1CCOCC1)C(=O)C1CCOCC1`, for which the cytotoxicity call in the test with HSkMC and in the test with HepG2 was “inactive” in each case. Further, in the test with S. aureus RN4220, the growth inhibition call was “inactive”.

Consider `Cc1ccc(S(=O)(=O)Nc2ccc3c(c2)C(=O)N([C@@H](C)CO)C[C@@H](C)[C@@H](CN(C)CC2CC2)O3)cc1`, for which the cytotoxicity call with HSkMC and with HepG2 was “inactive” in each case. The growth inhibition call in the test on S. aureus RN4220 was “inactive”.

`C[C@H]1CN([C@@H](C)CO)C(=O)c2cccc(NC(=O)Nc3ccc(C(F)(F)F)cc3)c2O[C@@H]1CN(C)Cc1ccc(Cl)c(Cl)c1`: the cytotoxicity call in the test with HSkMC and with HepG2 was “active” in each case. The growth inhibition call in the test on S. aureus RN4220 was “inactive”.

Take `COc1ccc(S(=O)(=O)Nc2ccc3c(c2)C(=O)N([C@H](C)CO)C[C@H](C)[C@H](CN(C)C(=O)Nc2ccc(F)cc2)OCCCC[C@H](C)O3)cc1`: the cytotoxicity call in the test with HSkMC and with HepG2 was “inactive” in each case. Further, the growth inhibition call in the test on S. aureus RN4220 was “inactive”.

Take `Cc1noc(C)c1NC(=O)Nc1cccc2c1O[C@H](CN(C)Cc1ccc(C(=O)Nc3ccccc3N)cc1)[C@H](C)CN([C@H](C)CO)C2=O`: the cytotoxicity call with HSkMC and with HepG2 was “inactive” each time. Further, the growth inhibition call in the test with S. aureus RN4220 is “inactive”.

On to `C[C@@H]1CN([C@H](C)CO)S(=O)(=O)c2ccc(-c3cncnc3)cc2O[C@@H]1CN(C)C(=O)Cc1ccncc1`, for which the cytotoxicity call in the test with HSkMC and with HepG2 was “inactive” throughout. Also, the growth inhibition call with S. aureus RN4220 is “inactive”.

`CN1CCO[C@H]2CCN(C(=O)c3ccn(C)n3)C[C@H]21`: the cytotoxicity call in the test with HSkMC and with HepG2 was “inactive” throughout. Moreover, the growth inhibition call with S. aureus RN4220 is “inactive”.

`C[C@@H]1CN([C@H](C)CO)C(=O)c2cc(NC(=O)Nc3ccc(F)cc3)ccc2O[C@@H]1CN(C)S(C)(=O)=O`: the cytotoxicity call in the test with HSkMC and in the test with HepG2 was “inactive” each time. Moreover, the growth inhibition call in the test on S. aureus RN4220 is “inactive”.

As to `O=C(C[C@@H]1CC[C@H]2NC[C@H](O)COC[C@@H]2O1)NCCN1CCCCC1`, the cytotoxicity call with HSkMC and in the test with HepG2 was “inactive” throughout. Moreover, in the test with S. aureus RN4220, the growth inhibition call was “inactive”.

As to `C[C@@H]1CCCCO[C@H](CN(C)C(=O)C2CCCCC2)[C@@H](C)CN([C@H](C)CO)C(=O)c2cc(NC(=O)C3CCCCC3)ccc2O1`, the cytotoxicity call in the test with HSkMC and with HepG2 was “inactive” throughout. The growth inhibition call in the test on S. aureus RN4220 is “inactive”.

With `COc1ccc(NC(=O)N(C)C[C@H]2OCCCC[C@H](C)Oc3ccc(NC(=O)C4CCCCC4)cc3C(=O)N([C@H](C)CO)C[C@@H]2C)cc1`, the cytotoxicity call in the test on HSkMC and with HepG2 was “inactive” in each case. Moreover, in the test with S. aureus RN4220, the growth inhibition call is “inactive”.

As to `CCC[C@@H]1C[C@@H](C(=O)N[C@@H]([C@H]2O[C@H](SC)[C@H](O)[C@@H](O)[C@H]2O)[C@@H](C)O)N(C)C1`, the cytotoxicity call in the test on HSkMC and in the test on HepG2 was “inactive” each time. Besides, the growth inhibition call in the test on S. aureus RN4220 is “active”.

For the compound `Cc1ccc(S(=O)(=O)N(C)C[C@H]2Oc3c(NS(=O)(=O)c4cccs4)cccc3C(=O)N([C@@H](C)CO)C[C@H]2C)cc1`, the cytotoxicity call in the test with HSkMC and in the test with HepG2 was “inactive” each time. Moreover, the growth inhibition call in the test with S. aureus RN4220 was “inactive”.

On to `CNC(=O)C[C@H]1CC[C@H]2[C@@H](COC[C@H](O)CN2C(=O)Nc2cccc(OC)c2)O1`, for which the cytotoxicity call in the test on HSkMC (human skeletal muscle cells) and with HepG2 was “inactive” throughout. Moreover, the growth inhibition call in the test with S. aureus RN4220 was “inactive”.

`O=c1ccoc2cc(O)c([C@H]3O[C@H](CO)[C@@H](O)[C@H](O)[C@@H]3O)c(O)c12`: the cytotoxicity call with HSkMC and in the test with HepG2 was “inactive” throughout. For the same compound, the growth inhibition call with S. aureus RN4220 was “inactive”.

These data come from the antibiotic and cytotoxicity screens of Wong et al. (2023).
